Results taken from PubChem BioAssay AID1347165 (National Center for Advancing Translational Sciences (NCATS), 2019).
Screen size: about 220,000 compounds; about 5,700 (2.6%) were called active. Inconclusive results, whose numbers are uncertain, are shown with a selection of clear calls. The call rests on the fitted dose curve; in most records, active means well fitted inhibition curve with a large enough effect; inconclusive means small, poorly fitted or top-dose-only effect; inactive means no such curve, though single readings can be large or run the other way. Potencies of inconclusive entries are doubtful fits and often do not repeat.

Molecular target: Lysine-specific demethylase 5B (Homo sapiens) (UniProt Q9UGL1)
Assay: Primary screen for KDM5B Histone Demethylases FDH-coupled qHTS; further: nearly all actives have a fitted effect of over 70% in size; on activity change, negative = inhibition: 0% is about no effect
Conditions: FDH-coupled NADH fluorescence (FDH is formaldehyde dehydrogenase); activity change, negative = inhibition: at 57.7 µM (top of the series) unless noted
Method in brief: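 Inhibition is measured as reduced NADH fluorescence generation from FDH coupling to formaldehyde release. Truncated KDM5BΔAP at 200 nM final acts on H3K4me3 peptide (12.5 µM in substrate mix) in pH 7.5 HEPES buffer with Tween-20, 30 min, room temperature.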
Potency means the concentration at half of the fitted maximal effect; tags describe the fitted curve by direction and shape.

Chain of UniProt Q9UGL1 (Q9UGL1 whole entry, looked up): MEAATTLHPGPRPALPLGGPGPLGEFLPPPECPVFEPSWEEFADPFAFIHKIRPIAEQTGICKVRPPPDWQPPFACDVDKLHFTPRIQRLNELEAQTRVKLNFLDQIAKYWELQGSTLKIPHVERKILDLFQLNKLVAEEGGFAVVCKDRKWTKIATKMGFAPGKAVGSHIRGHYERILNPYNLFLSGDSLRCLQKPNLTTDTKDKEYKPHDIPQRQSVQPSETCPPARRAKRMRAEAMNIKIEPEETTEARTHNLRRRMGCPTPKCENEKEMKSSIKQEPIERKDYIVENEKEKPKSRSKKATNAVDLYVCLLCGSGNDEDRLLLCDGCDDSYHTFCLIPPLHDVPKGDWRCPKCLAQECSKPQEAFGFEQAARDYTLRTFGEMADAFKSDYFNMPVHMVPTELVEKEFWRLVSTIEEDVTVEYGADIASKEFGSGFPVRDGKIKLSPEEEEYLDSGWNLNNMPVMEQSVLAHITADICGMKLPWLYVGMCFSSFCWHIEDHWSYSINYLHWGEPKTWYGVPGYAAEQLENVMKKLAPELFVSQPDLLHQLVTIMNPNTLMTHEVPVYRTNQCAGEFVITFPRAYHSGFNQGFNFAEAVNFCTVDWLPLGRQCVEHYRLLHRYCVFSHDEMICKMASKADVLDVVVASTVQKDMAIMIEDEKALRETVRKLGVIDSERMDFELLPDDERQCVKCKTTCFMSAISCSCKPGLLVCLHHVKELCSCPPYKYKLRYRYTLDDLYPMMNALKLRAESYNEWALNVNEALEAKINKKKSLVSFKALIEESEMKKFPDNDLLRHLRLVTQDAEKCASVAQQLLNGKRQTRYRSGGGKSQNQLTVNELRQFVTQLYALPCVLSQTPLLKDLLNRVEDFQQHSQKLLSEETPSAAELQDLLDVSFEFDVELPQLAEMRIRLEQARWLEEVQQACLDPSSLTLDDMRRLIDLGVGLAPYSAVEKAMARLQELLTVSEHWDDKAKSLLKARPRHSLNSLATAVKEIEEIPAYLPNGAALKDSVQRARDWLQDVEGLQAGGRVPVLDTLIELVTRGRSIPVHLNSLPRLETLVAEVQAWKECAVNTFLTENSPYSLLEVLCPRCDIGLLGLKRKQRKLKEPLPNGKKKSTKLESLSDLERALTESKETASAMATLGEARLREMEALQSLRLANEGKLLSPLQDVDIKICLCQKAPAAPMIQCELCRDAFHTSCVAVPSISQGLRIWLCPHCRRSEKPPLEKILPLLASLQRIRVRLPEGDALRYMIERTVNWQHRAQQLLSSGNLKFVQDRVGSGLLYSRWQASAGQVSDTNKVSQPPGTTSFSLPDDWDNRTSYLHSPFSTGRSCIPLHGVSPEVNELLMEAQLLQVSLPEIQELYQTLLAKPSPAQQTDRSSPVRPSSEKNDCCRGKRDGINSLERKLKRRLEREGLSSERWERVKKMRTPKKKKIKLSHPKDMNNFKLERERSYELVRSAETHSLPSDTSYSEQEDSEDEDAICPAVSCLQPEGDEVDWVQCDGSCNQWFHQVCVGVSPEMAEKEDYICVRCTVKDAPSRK

**Q.** With `Cc1cccc(C(=O)N2CCC3(CC2)c2[nH]c4ccccc4c2CCN3C)c1` as the molecule, how does the Potency read?
**A.** Its Potency is inconclusive: 22.4 µM [inhibitor, single point].

**Q.** With `Cc1cn2nc(C(=O)N3CCN(c4ccccc4)CC3)cc2c(N2CCCC2)n1` as the molecule, how does the Potency read?
**A.** Its Potency is inconclusive: 28.2 µM [inhibitor, partial curve, poor fit].

**Q.** For `Nc1nc(Nc2ccc(Cl)cc2)nc(-c2cc3ccccc3o2)n1`, which Potency is on record?
**A.** Its Potency is inconclusive: 14.1 µM [inhibitor, partial curve, poor fit].

**Q.** Which Potency does the source give for `Fc1ccc(NC(=S)NC2CC2)cc1` here?
**A.** The Potency was “inactive”.

**Q.** With `CCOc1ccc(-c2nnc(NC(=O)C3CCCC3)o2)cc1` as the molecule, how does the Potency read?
**A.** The Potency was inconclusive: 31.6 µM [inhibitor, partial curve, poor fit].

**Q.** How did the Potency turn out when `Cc1c(-c2cc(C(=O)N3CCC(=O)N(CC4CC4)C(C(C)C)C3)no2)cnn1C` (stereo not given) was run?
**A.** Its Potency is “inactive”.

**Q.** How did the Potency turn out when `CC(=O)Nc1ccc(NC(=O)c2cc3sccc3n2Cc2ccc(Cl)cc2)cc1` was run?
**A.** Its Potency is inconclusive: 6.31 µM [inhibitor, partial curve, poor fit].

**Q.** For `Cc1[nH]cnc1C(=O)N1CCC2(CC1)CC(C(=O)O)N(C(=O)C1CC1)C2` (stereo not given), which Potency is on record?
**A.** The Potency was inconclusive: 11.2 µM [inhibitor, partial curve].

**Q.** With `CCNC(=O)N1CCc2nc(OCC)ccc2C1` as the molecule, how does the Potency read?
**A.** The Potency was “inactive”.

**Q.** `CCN(CC1CCOC1)C(=O)CCc1c(C)c2ccc(OC)cc2oc1=O` (stereo not given) was tested. Which Potency did it give?
**A.** Its Potency is inconclusive: 22.4 µM [inhibitor, partial curve, poor fit].

**Q.** How did the activity change, negative = inhibition turn out when `CCCN(C(=O)COc1cc(=O)n(CC)c2ccccc12)c1ccc(C(C)C)cc1` was run?
**A.** Its activity change, negative = inhibition is inconclusive: -37.2% [inhibitor] [at 11.5 µM].

**Q.** How did the Potency turn out when `Fc1ccccc1-c1n[nH]c2c1CN(Cc1cccn1-c1nccs1)CC2` was run?
**A.** The Potency was inconclusive: 7.08 µM [inhibitor, full curve, poor fit].

**Q.** `Cc1ccc(CCNC(=O)c2ccc(CNS(=O)(=O)c3ccccc3)cc2)cc1` was tested. Which Potency did it give?
**A.** The Potency was “inactive”.

**Q.** For `COc1cccc(N2C(=O)NC(=NC3CCCCC3)C23CCN(C(=O)c2ccc(C)cc2)C3)c1` (stereo not given), which Potency is on record?
**A.** Its Potency is inconclusive: 50.1 µM [inhibitor, partial curve, poor fit].

**Q.** For `C[S+](=O)([O-])N1Cc2ccccc2CC2(CCCCN2Cc2ccccn2)C1` (stereo not given), which Potency is on record?
**A.** The Potency was inconclusive: 50.1 µM [inhibitor, partial curve, poor fit].

**Q.** Which Potency does the source give for `Cc1ccccc1CNC(=O)c1ccc(CSc2nc3cccnc3n2Cc2ccccc2)cc1` here?
**A.** Its Potency is inconclusive: 31.6 µM [inhibitor, partial curve, poor fit].

**Q.** Which Potency does the source give for `CC1CCc2noc(NC(=O)c3cc(=O)c4cc(Br)ccc4o3)c2C1` (stereo not given) here?
**A.** The Potency was “inactive”.

**Q.** With `C[C@@H](NC(=O)C1=C[C@@H](NC(=O)Cc2cccs2)[C@@H](O)[C@H](O)C1)C(N)=O` as the molecule, how does the Potency read?
**A.** Its Potency is inconclusive: 28.2 µM [inhibitor, partial curve].

**Q.** `CN(C)CCCn1c(-c2ccc(COc3ccc(Br)cc3)o2)n[nH]c1=S` was tested. Which Potency did it give?
**A.** The Potency was inconclusive: 17.8 µM [inhibitor, partial curve, poor fit].

**Q.** With `COc1cccc2cc(-c3csc(-c4ccc(Cl)cc4)n3)c(=O)oc12` as the molecule, how does the Potency read?
**A.** The Potency was inconclusive: 11.2 µM [inhibitor, partial curve, poor fit].

**Q.** With `O=C(COC(=O)c1ccc2ccccc2n1)Nc1cccc(Oc2ccccc2)c1` as the molecule, how does the Potency read?
**A.** Its Potency is “inactive”.

**Q.** `CCOc1ccc(-c2cc3c(=O)n(CCNC(=O)c4ccncc4)ccn3n2)cc1` was tested. Which Potency did it give?
**A.** The Potency was inconclusive: 17.8 µM [inhibitor, partial curve].

**Q.** Which Potency does the source give for `COc1ccc2cc(S(=O)(=O)c3cc(C)cc(C)c3)c(=O)oc2c1` here?
**A.** Its Potency is inconclusive: 1.78 µM [inhibitor, full curve, poor fit].

**Q.** How did the Potency turn out when `Cc1ccc(CCNC(=O)c2cc(C)nc3c2c(C)nn3-c2ccc(C)cc2)cc1` was run?
**A.** The Potency was inconclusive: 2.51 µM [inhibitor, full curve, poor fit].

**Q.** With `O=C(Nc1ccc(C(F)(F)F)cc1)C1CCN(c2cnccn2)CC1` as the molecule, how does the Potency read?
**A.** Its Potency is inconclusive: 35.5 µM [inhibitor, partial curve, poor fit].

**Q.** How did the Potency turn out when `CCOC(=O)Cn1c(=O)n(-c2ccccc2OC)c2nc(-c3ccccc3F)nc(C(N)=O)c21` was run?
**A.** The Potency was inconclusive: 25.1 µM [inhibitor, single point].

**Q.** Which Potency does the source give for `C=CCOC(=O)C(C#N)c1nc2ccccc2nc1N1CCCC1` (stereo not given) here?
**A.** The Potency was inconclusive: 17.8 µM [inhibitor, partial curve, poor fit].

**Q.** For `CN(C)c1ccc(C(=O)Nc2cccc(-c3nc4cccnc4s3)c2)cc1`, which Potency is on record?
**A.** The Potency was inconclusive: 39.8 µM [inhibitor, single point].

**Q.** Which Potency does the source give for `CCCCCNC(=O)c1ccc(Cn2ccn3nc4c(c3c2=O)CCCC4)cc1` here?
**A.** Its Potency is inconclusive: 28.2 µM [inhibitor, single point].

**Q.** For `Cc1noc(C)c1-c1cc2cc(CO)oc2c(-c2cccc(OC(C)C)c2)n1`, which Potency is on record?
**A.** The Potency was active: 25.1 µM.

**Q.** How did the Potency turn out when `Cc1cccc2sc(N(Cc3cccnc3)C(=O)c3ccc(Cl)s3)nc12` was run?
**A.** Its Potency is “inactive”.

**Q.** For `Cc1cc(C(=O)Nc2cccc(F)c2)c2c(C)nn(-c3cccc(Cl)c3C)c2n1`, which Potency is on record?
**A.** The Potency was inconclusive: 31.6 µM [inhibitor, partial curve, poor fit].

**Q.** How did the Potency turn out when `CCc1cccc2c(C(CC(=O)N3CCc4ccccc4C3)c3cccc4c3OCO4)c[nH]c12` (stereo not given) was run?
**A.** Its Potency is inconclusive: 22.4 µM [inhibitor, partial curve, poor fit].

**Q.** `CN(C)C[C@@H]1CN(c2ccccn2)C[C@H]1NC(=O)c1cccc(C#N)c1` was tested. Which Potency did it give?
**A.** Its Potency is inconclusive: 31.6 µM [inhibitor, partial curve, poor fit].

**Q.** With `CC(=O)Nc1ccc(CN2CCn3c(nnc3C3CCNCC3)C2)cc1` as the molecule, how does the Potency read?
**A.** The Potency was active: 12.6 µM.

**Q.** Which Potency does the source give for `Cc1ccccc1C(=O)OCc1cc(=O)n2c(C)csc2n1` here?
**A.** Its Potency is inconclusive: 25.1 µM [inhibitor, partial curve, poor fit].

**Q.** `CCCCN(CCCC)Cc1cc(=O)oc2cc(C)c(O)cc12` was tested. Which Potency did it give?
**A.** The Potency was inconclusive: 39.8 µM [inhibitor, single point].

**Q.** Which Potency does the source give for `OCCN1CCN(c2cc(-c3nc4ccccc4s3)c3ccccc3n2)CC1` here?
**A.** The Potency was inconclusive: 25.1 µM [inhibitor, single point].

**Q.** With `COc1cccc(-c2noc(-c3ccc(N4CCCC(CO)C4)nc3)n2)c1OC` (stereo not given) as the molecule, how does the Potency read?
**A.** The Potency was active: 31.6 µM.

**Q.** How did the Potency turn out when `CCCNC(=O)c1cnc2sc(N3CCCCCC3)nn2c1=O` was run?
**A.** Its Potency is inconclusive: 31.6 µM [inhibitor, partial curve, poor fit].
